From PubChem BioAssay AID485344 (National Center for Advancing Translational Sciences (NCATS), 2010) come the findings set out here.

The campaign covered roughly 340,000 compounds. About 6,900 (2%) were called active. No stated cut-off is given here; in the data, active means inhibition above about 30%; inactive means below that, where a call was filed. This is a selection; strong and weak results do not stand in their true shares. Where no call is shown, the source filed none.

The test addresses D(2) dopamine receptor (Homo sapiens) (UniProt P14416). Briefly: HTS Assay for Allosteric Antagonists of the Human D2 Dopamine Receptor: Primary Screen for Antagonists. Further: 0% is about no effect. To be noted: HEK293 TREx D2 cells, calcium flux, dopamine EC80; at 10 µM; stronger effect = higher value. In outline: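 Tetracycline-induced HEK293 TREx cells expressing D2 receptor forced-coupled to calcium signalling, loaded with no-wash calcium dye. Compounds added and calcium flux read 180 s, then dopamine added at EC80 and read a further 180 s.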
UniProt P14416, sequence (P14416 whole entry, looked up): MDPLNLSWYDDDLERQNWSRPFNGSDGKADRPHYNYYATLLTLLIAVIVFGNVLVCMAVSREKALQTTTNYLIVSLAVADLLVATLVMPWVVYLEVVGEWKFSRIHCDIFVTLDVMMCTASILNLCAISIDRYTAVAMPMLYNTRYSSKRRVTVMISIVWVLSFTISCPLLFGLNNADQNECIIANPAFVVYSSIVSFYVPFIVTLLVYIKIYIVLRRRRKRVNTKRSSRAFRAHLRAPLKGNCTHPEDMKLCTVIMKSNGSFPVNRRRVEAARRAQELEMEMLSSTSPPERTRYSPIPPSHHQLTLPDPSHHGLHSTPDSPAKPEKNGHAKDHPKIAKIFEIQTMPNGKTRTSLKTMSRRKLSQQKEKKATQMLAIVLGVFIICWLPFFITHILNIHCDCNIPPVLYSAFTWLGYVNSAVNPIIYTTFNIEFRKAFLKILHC
For orientation: A change in cytosolic calcium serves as a functional read-out for many receptors and channels.
For `N#Cc1ccccc1S(=O)(=O)N1CCC(Oc2ccc(-n3cnnn3)cc2)CC1`, the inhibition (as a rule, the change of the read-out against control, counted positive when it falls) was -0.507%. The same measure for `COc1ccc(C2CC(=O)c3cnc4c(-c5ccccc5)c(C)nn4c3C2)c(OC)c1` (stereo unspecified): -12.2%; for `CCCCNC(=O)CCCn1c(=O)c2ccccc2n(Cc2ccc(Cl)cc2)c1=O`: 10.8%. The same measure for `COc1ccc2c(c1)c1c(c(=O)n(-c3ccc(OC)c(OC)c3)c(=O)n1Cc1ccc(C)cc1)n2C`: 2.39%; for `COc1ccccc1CNC(=O)CCCn1c(=O)c2cccn2c2ccccc21`: 3.64%. The same measure for `NS(=O)(=O)c1ccc(CNC(=O)CCSCCC(=O)NCc2ccc(S(N)(=O)=O)cc2)cc1`: active: 32.9%. As for `Cc1cc2c(cc1C)-n1c(-c3ccccc3)c3c(=O)n(C)c(=O)n(C)c3c1C(c1ccco1)N2` (stereo unspecified), the inhibition is 1.45%. For `CC(C)(C)OC(=O)N1CCC(c2c(C(=O)N3CCOCC3)cnn2-c2ccccc2Cl)CC1` the value was -4.88%. On to `CCc1ccc2oc(C(=O)Nc3cc(Cl)ccc3OC)cc(=O)c2c1`, for which the inhibition is 8.76%. In the case of `Cc1c(C(=O)Nc2ccccc2)sc2nc(-c3cc4ccccc4oc3=O)[nH]c(=O)c12`, the inhibition was -6.49%. For `O=C(Nc1ccc2nc(SCC(=O)N3CCCc4ccccc43)sc2c1)c1ccccc1F` the value was 18.8%; for `Cc1ccc(NC(=O)CCn2nc(-c3ccccc3)c3ccccc3c2=O)c(C)c1`, -0.335%. The same measure for `Fc1ccc(Nc2nc(-c3cccc(Cl)c3)c3c(n2)-c2ccccc2OC3)cc1`: 7.93%. For `CCc1ccc(C2=C(C)C(N3CCC(C(=O)Nc4ccc(F)cc4)CC3)=NS2(=O)=O)cc1` the value was -0.854%; for `O=C(Nc1cccc(C(=O)N2CCN(c3ccccc3)CC2)c1)c1nsc2ccccc12`, -14.2%; for `Cc1cc2ccccc2n1CCNC(=O)c1ccccc1F`, -2.41%. `O=c1c2sc3ccccc3c2n(Cc2ccc(F)cc2)c(=O)n1Cc1ccco1`: the inhibition was 5.17%. For `CC(C)c1ccc(S(=O)(=O)c2nnn3c2nc(NCc2cccs2)c2sccc23)cc1` the value was 2.19%; for `O=C(NCC(c1ccc2c(c1)OCO2)N1CCN(c2ccccc2)CC1)C(=O)Nc1ccccc1` (stereo unspecified), -25%.

In the case of `COc1ccc(C(=O)Nc2ccccc2)cc1S(=O)(=O)Nc1ccc(Br)cc1`, the inhibition was found to be 4.86%. For `O=C(OCc1cc(=O)n2nc(C3CC3)sc2n1)c1ccc(NC(=O)c2ccccc2Cl)cc1` the value was -3.83%; for `O=C1CC(N2CCC(C(=O)N3CCCCC3)CC2)C(=O)N1` (stereo unspecified), active: 37.9%. For `CCOc1ccc(C2C(C(N)=O)=C(C)Nc3nc(-c4ccc(OC)cc4)nn32)cc1` (stereo unspecified), the inhibition is -5.22%. The same measure for `COc1ccccc1Nc1nn2c(=O)c3ccc(C(=O)NC4CCC(C)CC4)cc3nc2s1` (stereo unspecified): 16.8%; for `COc1ccccc1C(=O)Nc1cccc(OCc2cc(=O)n3c4c(sc3n2)CCCC4)c1`: 13.1%. For `O=C(C1CCN(S(=O)(=O)c2ccc(Br)s2)CC1)N1CCN(c2ccc(F)cc2)CC1`, the inhibition worked out at 7.78%.
